Assay results published in article PMC4336329 (PLoS ONE, 2015).
The whole screen tested about 310,000 compounds, of which about 2,200 (0.71%) showed an effect of 50% or more. Effects have a minus sign here. This is one part of the list.

The molecules below were run against human ether-à-go-go-related gene (hERG) potassium channel (human, UniProt Q12809) (assay: primary screen, population patch clamp on CHO cells stably expressing hERG).
Chain of human ether-à-go-go-related gene (hERG) potassium channel (Q12809 whole entry, looked up): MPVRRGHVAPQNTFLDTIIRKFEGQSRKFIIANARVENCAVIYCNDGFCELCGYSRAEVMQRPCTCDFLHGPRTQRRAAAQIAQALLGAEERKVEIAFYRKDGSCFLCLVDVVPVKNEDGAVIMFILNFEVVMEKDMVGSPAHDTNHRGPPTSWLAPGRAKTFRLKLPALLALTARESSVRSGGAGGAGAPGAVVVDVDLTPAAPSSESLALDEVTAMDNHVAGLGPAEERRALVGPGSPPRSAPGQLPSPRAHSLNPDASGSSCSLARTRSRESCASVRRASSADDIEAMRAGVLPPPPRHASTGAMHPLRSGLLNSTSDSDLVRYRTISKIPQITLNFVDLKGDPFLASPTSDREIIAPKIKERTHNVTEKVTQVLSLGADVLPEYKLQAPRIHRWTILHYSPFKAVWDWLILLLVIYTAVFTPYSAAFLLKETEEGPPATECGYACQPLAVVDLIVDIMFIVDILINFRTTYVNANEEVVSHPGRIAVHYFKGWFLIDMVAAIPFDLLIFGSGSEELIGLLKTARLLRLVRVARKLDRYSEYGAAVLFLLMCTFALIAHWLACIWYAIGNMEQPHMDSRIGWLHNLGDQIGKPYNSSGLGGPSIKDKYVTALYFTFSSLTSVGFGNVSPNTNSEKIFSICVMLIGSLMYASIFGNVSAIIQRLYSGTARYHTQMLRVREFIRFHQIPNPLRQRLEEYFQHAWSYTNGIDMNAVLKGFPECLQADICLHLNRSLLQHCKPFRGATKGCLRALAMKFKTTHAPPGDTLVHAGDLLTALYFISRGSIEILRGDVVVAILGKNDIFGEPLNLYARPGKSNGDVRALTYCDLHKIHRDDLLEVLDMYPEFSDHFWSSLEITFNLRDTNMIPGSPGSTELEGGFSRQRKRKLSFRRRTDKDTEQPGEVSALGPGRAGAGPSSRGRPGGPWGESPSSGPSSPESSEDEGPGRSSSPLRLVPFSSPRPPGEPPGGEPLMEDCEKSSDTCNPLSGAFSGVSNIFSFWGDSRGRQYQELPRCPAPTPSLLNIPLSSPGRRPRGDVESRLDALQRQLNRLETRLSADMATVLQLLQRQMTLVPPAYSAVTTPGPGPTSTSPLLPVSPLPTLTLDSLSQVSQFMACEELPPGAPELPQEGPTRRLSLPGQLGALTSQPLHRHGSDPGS

Row | Structure (SMILES) | hERG current change (%, negative = inhibition) at 1uM [%]
1 | CC(C)n1nc(C(=O)NCCCN2CCCC2=O)c2ccccc2c1=O | 8.28
2 | CCSc1ncc(C)cc1[N+](=O)[O-] | -0.198
3 | NC1=NC(c2ccc(Cl)cc2)n2c(nc3ccccc32)N1 (centres unmarked) | 7.86
4 | CNC(=O)CSCCn1c(SCC(=O)NC)nc2ccccc2c1=O | 10
5 | CCOc1ccc(NC2=CC(=O)CCC2)cc1 | 12.3
6 | COc1ccccc1C(=O)Nc1ccnn1C1CCN(Cc2ccn[nH]2)CC1 | 1.62
7 | CCOC(=O)NC(=O)C(/C=N/c1sccc1C(=O)OC)=C(\C)O | 15.1
8 | COc1cc(Cl)ccc1OCc1cc(C(=O)N2CCCCCCC2)no1 | 18.9
9 | c1cc(C2CCN(Cc3nc(-c4ccc5c(c4)OCO5)no3)CC2)ccn1 | 5.2
10 | CN1C(=O)/C(=N\OC(=O)c2cccc3ccccc23)c2ccccc21 | 10.4
11 | COc1ccccc1N1CCN(C(c2ccc(Cl)cc2)c2nnnn2C(C)(C)C)CC1 (centres unmarked) | 14.1
12 | COC(=O)c1sccc1NC(=O)CNC(=O)c1ccccc1 | 5.18
13 | O=C(O)c1cccc(NCc2cccnc2)c1 | 13.5
14 | O=C(Oc1ccccc1)Oc1ccc2c(c1)oc(=O)c1ccccc12 | 11.2
15 | CC(=O)c1cccc(NC(=O)COC(=O)[C@@H](NC(=O)OCc2ccccc2)C(C)C)c1 | 9.05
16 | CC1CCCN(C(=O)CSc2ncccn2)C1 (centres unmarked) | 16.7
17 | Cc1nnc(SCCc2ccccc2)[nH]c1=O | -6.67
18 | COc1cccc(N(CC(=O)N2CCCC2)S(C)(=O)=O)c1 | 16.5
19 | N#CCc1nc2ccc(S(=O)(=O)N3CCOCC3)cc2s1 | 3.63
20 | Cc1ccc(C)c(NC(=S)NNC(=O)c2csc(C)c2)c1 | 17.6
21 | COc1ccc2c(C)cc(=O)oc2c1C | 8.03
22 | Brc1ccc2c(c1)CNc1c(ncnc1N1CCOCC1)O2 | -6.41
23 | CCOc1ccc(NC(=O)CSc2nnc(-c3cc(C)[nH]n3)n2N)cc1 | 12.8
24 | Cc1cccc(N(C(=O)CS(=O)CC(=O)Nc2ccc3c(c2)OCO3)C(C)C(=O)NC2CCCC2)c1C (centres unmarked) | 5.01
25 | O=C(NC1CCCC1)C1CCN(S(=O)(=O)c2ccccc2)CC1 | 6.3
26 | CCOC(=O)C1CCCN(Cc2nc(N)nc(Nc3ccccc3)n2)C1 (centres unmarked) | -18.6
